# Reference: the supplement of paper PMC8728848
# Some of the results follow.
# B1: OrysaEULS2 (Oryza sativa) (protein)
# chain: MVYCRANPNYAMTARNGAVVLAPANPKDEYQHWIKDMRWSTSIKDEEGYPAFALVNKATGQAIKHSLGQSHPVRLVPYNPEVMDESVLWTESRDVGNGFRCIRMVNNIYLNFDAFHGDKYHGGVRDGTDIVLWKWCEGDNQRWKIQPYYILEQKLISEEDLNSAVDHHHHHH
# How the values were obtained:
# Assay in all cases: glycan array binding signal (z-score within array); higher = stronger binding
# Conditions in all cases: glycan notation: IUPAC condensed, linker removed
# [1] = biological target: GlcNAc(b1-3)[GlcNAc(b1-6)]Gal(b1-4)GlcNAc
# Outline: (§1)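 Arrays were curated from the Consortium for Functional Glycomics database, 3228 in total, and kept only where the protein sequence was available. Binding is expressed as a within-array Z-score. This score was averaged across arrays of the same protein sequence at different concentrations or buffers and across linkers, and negative values can be read as non-binding.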
# [2] = biological target: GlcNAc(b1-3)[GlcNAc(b1-6)]GalNAc
# Outline: as §1
# [3] = biological target: GlcNAc(b1-4)Gal(b1-4)GlcNAc
# Outline: as §1
# GlcNAc(b1-4)GlcNAc = biological target: GlcNAc(b1-4)GlcNAc
# Outline: as §1
# [4] = biological target: GlcNAc(b1-4)GlcNAc(b1-4)GlcNAc
# Outline: as §1
# [5] = biological target: GlcNAc(b1-4)GlcNAc(b1-4)GlcNAc(b1-4)GlcNAc(b1-4)GlcNAc
# Outline: as §1
# [6] = biological target: GlcNAc(b1-4)GlcNAc(b1-4)GlcNAc(b1-4)GlcNAc(b1-4)GlcNAc(b1-4)GlcNAc
# Outline: as §1
# [7] = biological target: GlcNAc(b1-4)[GlcNAc(b1-6)]GalNAc
# Outline: as §1
# [8] = biological target: GlcNAc(b1-6)Gal(b1-4)GlcNAc
# Outline: as §1
# GlcNAc(b1-6)GalNAc = biological target: GlcNAc(b1-6)GalNAc
# Outline: as §1
# GlcNAc3Prop(b1-4)GlcNAc = biological target: GlcNAc3Prop(b1-4)GlcNAc
# Outline: as §1
# [9] = biological target: GlcNAc6S(b1-3)Gal(b1-4)GlcNAc
# Outline: as §1
# Kdn(a2-3)Gal(b1-3)GalNAc = biological target: Kdn(a2-3)Gal(b1-3)GalNAc
# Outline: as §1
# Kdn(a2-3)Gal(b1-3)GlcNAc = biological target: Kdn(a2-3)Gal(b1-3)GlcNAc
# Outline: as §1
# Kdn(a2-3)Gal(b1-4)Glc = biological target: Kdn(a2-3)Gal(b1-4)Glc
# Outline: as §1
# Kdn(a2-3)Gal(b1-4)GlcNAc = biological target: Kdn(a2-3)Gal(b1-4)GlcNAc
# Outline: as §1
# [10] = biological target: Kdn(a2-3)Gal(b1-4)[Fuc(a1-3)]GlcNAc
# Outline: as §1
# Kdn(a2-6)Gal(b1-4)GlcNAc = biological target: Kdn(a2-6)Gal(b1-4)GlcNAc
# Outline: as §1
# [11] = biological target: Man(a1-2)Man(a1-2)Man(a1-3)Man
# Outline: as §1
# [12] = biological target: Man(a1-2)Man(a1-2)Man(a1-6)[Man(a1-3)]Man
# Outline: as §1
# Man(a1-2)Man(a1-3)Man = biological target: Man(a1-2)Man(a1-3)Man
# Outline: as §1
# [13] = biological target: Man(a1-2)Man(a1-3)[Man(a1-2)Man(a1-6)]Man
# Outline: as §1
# [14] = biological target: Man(a1-2)Man(a1-3)[Man(a1-2)Man(a1-6)]Man(a1-6)[Man(a1-2)Man(a1-2)Man(a1-3)]Man
# Outline: as §1
# [15] = biological target: Man(a1-2)Man(a1-3)[Man(a1-2)Man(a1-6)]Man(a1-6)[Man(a1-2)Man(a1-2)Man(a1-3)]Man(b1-4)GlcNAc(b1-4)GlcNAc
# Outline: as §1
# [16] = biological target: Man(a1-2)Man(a1-3)[Man(a1-6)]Man(a1-6)[Man(a1-2)Man(a1-3)]Man(b1-4)GlcNAc(b1-4)GlcNAc
# Outline: as §1
# [17] = biological target: Man(a1-2)Man(a1-6)[Man(a1-3)]Man(a1-6)[Man(a1-2)Man(a1-2)Man(a1-3)]Man
# Outline: as §1
# [18] = biological target: Man(a1-2)Man(a1-6)[Man(a1-3)]Man(a1-6)[Man(a1-2)Man(a1-2)Man(a1-3)]Man(b1-4)GlcNAc(b1-4)GlcNAc
# Outline: as §1
# Man(a1-3)[Man(a1-6)]Man = biological target: Man(a1-3)[Man(a1-6)]Man
# Outline: as §1
# [19] = biological target: Man(a1-3)[Man(a1-6)]Man(a1-6)[Man(a1-2)Man(a1-3)]Man(b1-4)GlcNAc(b1-4)GlcNAc
# Outline: as §1
# [20] = biological target: Man(a1-3)[Man(a1-6)]Man(a1-6)[Man(a1-3)]Man
# Outline: as §1
# [21] = biological target: Man(a1-3)[Man(a1-6)]Man(a1-6)[Man(a1-3)]Man(b1-4)GlcNAc(b1-4)GlcNAc
# Outline: as §1
# [22] = biological target: Man(a1-3)[Man(a1-6)]Man(b1-4)GlcNAc(b1-4)GlcNAc
# Outline: as §1
# [23] = biological target: Man(a1-3)[Man(a1-6)]Man(b1-4)GlcNAc(b1-4)[Fuc(a1-6)]GlcNAc
# Outline: as §1
# Man(a1-6)Man = biological target: Man(a1-6)Man
# Outline: as §1
# Man(b1-4)GlcNAc = biological target: Man(b1-4)GlcNAc
# Outline: as §1
# MurNAc(b1-4)GlcNAc = biological target: MurNAc(b1-4)GlcNAc
# Outline: as §1
# Neu5Ac(a2-3)Gal = biological target: Neu5Ac(a2-3)Gal
# Outline: as §1
# [24] = biological target: Neu5Ac(a2-3)Gal(b1-3)GalNAc
# Outline: as §1
# [25] = biological target: Neu5Ac(a2-3)Gal(b1-3)GalNAc(b1-3)Gal(a1-4)Gal(b1-4)Glc
# Outline: as §1
# [26] = biological target: Neu5Ac(a2-3)Gal(b1-3)GalNAc(b1-4)[Neu5Ac(a2-3)]Gal(b1-4)Glc
# Outline: as §1
# [27] = biological target: Neu5Ac(a2-3)Gal(b1-3)GalNAc(b1-4)[Neu5Ac(a2-8)Neu5Ac(a2-3)]Gal(b1-4)Glc
# Outline: as §1
# [28] = biological target: Neu5Ac(a2-3)Gal(b1-3)GalNAc6S
# Outline: as §1
# [29] = biological target: Neu5Ac(a2-3)Gal(b1-3)GlcNAc
# Outline: as §1
# [30] = biological target: Neu5Ac(a2-3)Gal(b1-3)GlcNAc(b1-2)Man
# Outline: as §1
# [31] = biological target: Neu5Ac(a2-3)Gal(b1-3)GlcNAc(b1-2)Man(a1-3)[GlcNAc(b1-4)][Neu5Ac(a2-3)Gal(b1-3)GlcNAc(b1-2)Man(a1-6)]Man(b1-4)GlcNAc(b1-4)GlcNAc
# Outline: as §1
binder,measurement,setting,value
B1,glycan array binding signal (z-score),[1],-0.186
same,glycan array binding signal (z-score),[2],-0.192
same,glycan array binding signal (z-score),[3],-0.155
same,glycan array binding signal (z-score),GlcNAc(b1-4)GlcNAc,-0.193
same,glycan array binding signal (z-score),[4],-0.185
same,glycan array binding signal (z-score),[5],-0.188
same,glycan array binding signal (z-score),[6],-0.215
same,glycan array binding signal (z-score),[7],-0.19
same,glycan array binding signal (z-score),[8],-0.155
same,glycan array binding signal (z-score),GlcNAc(b1-6)GalNAc,-0.189
same,glycan array binding signal (z-score),GlcNAc3Prop(b1-4)GlcNAc,-0.154
same,glycan array binding signal (z-score),[9],-0.18
same,glycan array binding signal (z-score),Kdn(a2-3)Gal(b1-3)GalNAc,-0.167
same,glycan array binding signal (z-score),Kdn(a2-3)Gal(b1-3)GlcNAc,-0.204
same,glycan array binding signal (z-score),Kdn(a2-3)Gal(b1-4)Glc,-0.226
same,glycan array binding signal (z-score),Kdn(a2-3)Gal(b1-4)GlcNAc,-0.203
same,glycan array binding signal (z-score),[10],-0.187
same,glycan array binding signal (z-score),Kdn(a2-6)Gal(b1-4)GlcNAc,-0.203
same,glycan array binding signal (z-score),[11],-0.223
same,glycan array binding signal (z-score),[12],-0.201
same,glycan array binding signal (z-score),Man(a1-2)Man(a1-3)Man,-0.196
same,glycan array binding signal (z-score),[13],-0.23
same,glycan array binding signal (z-score),[14],-0.171
same,glycan array binding signal (z-score),[15],0.796
same,glycan array binding signal (z-score),[16],1.35
same,glycan array binding signal (z-score),[17],-0.185
same,glycan array binding signal (z-score),[18],1.51
same,glycan array binding signal (z-score),Man(a1-3)[Man(a1-6)]Man,-0.198
same,glycan array binding signal (z-score),[19],4.8
same,glycan array binding signal (z-score),[20],-0.198
same,glycan array binding signal (z-score),[21],4.45
same,glycan array binding signal (z-score),[22],12.5
same,glycan array binding signal (z-score),[23],1.44
same,glycan array binding signal (z-score),Man(a1-6)Man,0.33
same,glycan array binding signal (z-score),Man(b1-4)GlcNAc,-0.199
same,glycan array binding signal (z-score),MurNAc(b1-4)GlcNAc,-0.26
same,glycan array binding signal (z-score),Neu5Ac(a2-3)Gal,-0.202
same,glycan array binding signal (z-score),[24],-0.192
same,glycan array binding signal (z-score),[25],-0.195
same,glycan array binding signal (z-score),[26],-0.199
same,glycan array binding signal (z-score),[27],-0.205
same,glycan array binding signal (z-score),[28],-0.174
same,glycan array binding signal (z-score),[29],-0.189
same,glycan array binding signal (z-score),[30],-0.31
same,glycan array binding signal (z-score),[31],-0.181
